Measurements as given in patent US20220136016A1, “MODIFIED CHLORAMPHENICOL […] AND BIOSYNTHESIS METHOD OF MAKING ESTERS USING SAME” (UNIVERSITY OF TENNESSEE RESEARCH FOUNDATION, priority 2020, published 2022).
For part of these data: The name of at least one read-out is uncertain. For part of these data: For at least one compound, name, drawing or mass did not settle the structure. Some entries share one result that the patent states for a list of compounds.

B1: CATec1: wild type CAT, type A, Escherichia coli (protein, listed as Escherichia coli)
chain: MEKKITGYTTVDISQWHRKEHFEAFQSVAQCTYNQTVQLDITAFLKTVKKNKHKFYPAFIHILARLMNAHPEFRMAMKDGELVIWDSVHPCYTVFHEQTETFSSLWSEYHDDFRQFLHIYSQDVACYGENLAYFPKGFIENMFFVSANPWVSFTSFDLNVANMDNFFAPVFTMGKYYTQGDKVLMPLAIQVHHAVCDGFHVGRMLNELQQYCDEWQGGA
modifications: SITE (1)..(219) CAT1_ECOLX, Type A
notes: wild type CAT, type A, Escherichia coli
B2: CATec3: wild type CAT, type A, Escherichia coli; expressed in strain HSCT2107 (protein, listed as Escherichia coli)
chain: MNYTKFDVKNWVRREHFEFYRHRLPCGFSLTSKIDITTLKKSLDDSAYKFYPVMIYLIAQAVNQFDELRMAIKDDELIVWDSVDPQFTVFHQETETFSALSCPYSSDIDQFMVNYLSVMERYKSDTKLFPQGVTPENHLNISALPWVNFDSFNLNVANFTDYFAPIITMAKYQQEGDRLLLPLSVQVHHAVCDGFHVARFINRLQELCNSKLK
modifications: SITE (1)..(213) CAT3_ECOLX, Type A
notes: wild type CAT, type A, Escherichia coli; expressed in strain HSCT2107

How the values were obtained:
CATec3 Y20F = CATec3 Y20F (Escherichia coli, UniProt P00484, Y20F); type: biochemical; conditions: 50° C., 2 mM acetyl-CoA, average±standard deviation
[1] = Specific activity of wild type CATs toward isobutanol; type: biochemical; conditions: 100 mM isobutanol, 50° C.; selected threshold (FIG. 2B)
[2] = Kinetic thermostability: activity loss after one-hour incubation at elevated temperatures; type: physicochemical; conditions: 70° C.; residual activity at 37° C. with chloramphenicol and acetyl-CoA, normalized to samples incubated at 50° C.

Row | Molecule | kcat/KM (CATec3 Y20F) | specific activity toward isobutanol [1] | activity retained after one-hour incubation [2]
1 | CC/C=C\CCO [3-cis-Hexen-1-ol] | 360.1 ± 129.4 M⁻¹ s⁻¹ |  | 
2 | CCCCCO [Pentanol] | 59.1 ± 19.3 M⁻¹ s⁻¹ |  | 
3 | CC(C)=CCC/C(C)=C/CO [Geraniol] | 1,975.7 ± 186.8 1/M/s |  | 
4 | OCc1ccco1 [Furfuryl alcohol] | 29.1 ± 8.4 M⁻¹ s⁻¹ |  | 
5 | CC(C)=CCC/C(C)=C\CO [Nerol] | 4,119.5 ± 753.0 1/M/s |  | 
6 | COc1cccc(CO)c1 [3-Methoxybenzyl alcohol] | 1,891.6 ± 248.8 1/M/s |  | 
7 | OCCc1ccccc1 [Phenylethyl alcohol] | 577.1 ± 26.2 M⁻¹ s⁻¹ |  | 
8 | CC(C)=CCO [Prenol] | 26.4 ± 6.6 M⁻¹ s⁻¹ |  | 
9 | O=C(N[C@H](CO)[C@H](O)c1ccc([N+](=O)[O-])cc1)C(Cl)Cl [Chloramphenicol] | 491,901.5 ± 115,286.2 1/M/s |  | 
10 | CC(C)CO [Isobutanol] | 13.0 ± 1.7 M⁻¹ s⁻¹ |  | 
11 | OCc1ccccc1 [Benzyl alcohol] | 130.3 ± 17.8 M⁻¹ s⁻¹ |  | 
12 | CCCCCCO [Hexanol] | 219.5 ± 33.5 M⁻¹ s⁻¹ |  | 
13 | B1 |  | greater than 5 μmol/min/mg protein | 
14 | B2 |  | greater than 5 μmol/min/mg protein | more than 95%
